# In the antibiotic and cytotoxicity screens of Wong et al. (2023):
# This is one part of the list.
# Key:
# HSkMC = human skeletal muscle cells; experiment: cytotoxicity call (relative viability < 0.9); conditions: 10 µM
# HepG2 = experiment: cytotoxicity call (relative viability < 0.9); conditions: 10 µM
# S. aureus RN4220 = experiment: growth inhibition call (relative growth <= 0.2); conditions: 50 µM
SMILES,cytotoxicity call (HSkMC),cytotoxicity call (HepG2),growth inhibition call (S. aureus RN4220)
CC(C)NC(=O)N(C)C[C@@H]1Oc2c(NC(=O)Nc3ccc4c(c3)OCO4)cccc2C(=O)N([C@H](C)CO)C[C@@H]1C,inactive,inactive,inactive
CNC(=O)c1c(I)c(NC(C)=O)c(I)c(C(=O)O)c1I,inactive,inactive,inactive
C[C@@H]1CN([C@H](C)CO)C(=O)c2cc(NC(=O)CCN3CCOCC3)ccc2O[C@@H]1CN(C)Cc1ccc(C(=O)O)cc1,inactive,inactive,inactive
C[C@@H]1CN([C@H](C)CO)C(=O)c2cc(NC(=O)Nc3cccc4ccccc34)ccc2O[C@H]1CN(C)C(=O)Nc1ccc2c(c1)OCO2,inactive,inactive,inactive
C[C@H](CO)N1C[C@H](C)[C@@H](CN(C)C(=O)Nc2ccccc2)Oc2ccc(NC(=O)Nc3cccc4ccccc34)cc2CC1=O,inactive,inactive,inactive
Cc1ccc(S(=O)(=O)N2C[C@H](O)COC[C@@H]3O[C@H](CC(=O)NCc4ccc(Cl)c(Cl)c4)CC[C@H]32)cc1,inactive,active,inactive
O=C(C[C@H]1CC[C@H]2[C@@H](COC[C@H](O)CN2C(=O)Nc2cccc(Cl)c2)O1)NCCCN1CCOCC1,inactive,inactive,inactive
C[C@@H]1CCCCO[C@@H](CN(C)C(=O)NC2CCCCC2)[C@H](C)CN([C@@H](C)CO)C(=O)c2cc(NS(=O)(=O)c3cccs3)ccc2O1,inactive,inactive,inactive
O=C([C@@H]1[C@@H](CO)[C@@H]2Cn3c(cccc3=O)[C@H]1N2CC1CCCC1)N1CCOCC1,inactive,inactive,inactive
C[C@H]1CN([C@@H](C)CO)C(=O)Cc2cc(NC(=O)CCCCCC(=O)Nc3ccccc3N)ccc2O[C@@H]1CN(C)Cc1ccc(-c2ccccc2)cc1,inactive,inactive,inactive
COc1ccc(NC(=O)N2C[C@H](O)COC[C@@H]3O[C@H](CC(=O)NCc4ccccc4OC)CC[C@H]32)cc1,inactive,inactive,inactive
COc1ccc(NC(=O)N(C)C[C@@H]2OCCCC[C@H](C)Oc3ccc(NC(=O)NC(C)C)cc3C(=O)N([C@H](C)CO)C[C@@H]2C)cc1,inactive,inactive,inactive
C[C@@H]1CCCCO[C@@H](CN(C)Cc2ccc(Cl)c(Cl)c2)[C@@H](C)CN([C@H](C)CO)C(=O)c2cc(NC(=O)Nc3ccc(F)cc3)ccc2O1,inactive,inactive,inactive
C[C@@H]1CCCCO[C@@H](CN(C)Cc2ccncc2)[C@@H](C)CN([C@H](C)CO)C(=O)c2cc(NS(C)(=O)=O)ccc2O1,inactive,inactive,inactive
Cc1noc(C)c1S(=O)(=O)Nc1ccc2c(c1)C(=O)N([C@@H](C)CO)C[C@H](C)[C@H](CN(C)Cc1ccc(-c3ccccc3)cc1)O2,inactive,inactive,inactive
C#CCCCCCCCCCCCC(O)CC(O)CO (stereo not given),inactive,inactive,inactive
C[C@@H]1CCCCO[C@@H](CN(C)CC2CCCCC2)[C@@H](C)CN([C@H](C)CO)C(=O)c2cc(NS(=O)(=O)c3ccc(Cl)cc3)ccc2O1,inactive,inactive,inactive
Cc1ccc(S(=O)(=O)N(C)C[C@@H]2OCCCC[C@@H](C)Oc3ccc(NC(=O)Nc4ccc(F)cc4)cc3C(=O)N([C@@H](C)CO)C[C@H]2C)cc1,inactive,inactive,inactive
CC(C)Oc1cccc(-n2c(CCc3c[nH]c4ccc(Br)cc34)nc3ccccc3c2=O)c1,active,inactive,inactive
O=C1Nc2ccc(I)cc2C1=Cc1cc(Br)c(O)c(Br)c1,active,active,inactive
C[C@H](CO)N1C[C@H](C)[C@H](CN(C)C(=O)Nc2ccnc(N3CCOCC3)c2)OCc2cn(nn2)CCCC1=O,inactive,inactive,inactive
NNCCc1ccccc1,inactive,inactive,active
C[C@H]1CN([C@@H](C)CO)C(=O)c2cc(NC(=O)Cc3cn(C)c4ccccc34)ccc2O[C@@H]1CN(C)Cc1ccc(C(=O)Nc2ccccc2N)cc1,active,inactive,inactive
COc1ccc(CN(C)C[C@@H]2OCCCC[C@H](C)Oc3ccc(NC(=O)Nc4ccc(OC)cc4)cc3C(=O)N([C@H](C)CO)C[C@H]2C)cc1,inactive,inactive,inactive
C[C@@H]1CN([C@H](C)CO)C(=O)c2cc(NC(=O)Cc3ccccc3)ccc2O[C@@H]1CN(C)Cc1ccc(Oc2ccccc2)cc1,inactive,inactive,inactive
